Laboratory results: patent publication US20250326813A1 (ELPIS BIOPHARMACEUTICALS, published 2025)

How the values were obtained:
[1] = molecular target: T1, human IL2Rα Fc fusion protein (human, UniProt P01589 22-213, limits assumed); experiment: ELISA on coated receptor-Fc, anti-His detection, single point 1 µM
T1 construct: also called CD25; not shown: Fc part
T1 sequence (looked up): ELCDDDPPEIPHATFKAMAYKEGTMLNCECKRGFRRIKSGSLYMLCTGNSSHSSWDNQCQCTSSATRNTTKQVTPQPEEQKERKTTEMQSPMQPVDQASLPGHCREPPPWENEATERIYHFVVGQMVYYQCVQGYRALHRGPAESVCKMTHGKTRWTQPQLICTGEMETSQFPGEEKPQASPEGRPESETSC
Procedure: Back-mutations were characterized for their binding activities to IL2Rβ and IL2Rα receptors by ELISA. Briefly, 384 well plate was immobilized with human IL2Rα and IL2Rβ Fc fusion proteins at a final concentration of 2 μg/mL in 1× PBS in total volume of 25 μL per well. The plate was incubated overnight at 4° C. and blocked with 80 μL of superblock per well for 1 hour. […] The IL2 mutant binding was detected by adding 25 μL of anti-His HRP diluted at 1:5000 in 1× PBST. In between each step, the plate was washed three times with 1× PBST using a plate washer. […] The plate was then developed with 25 μL of TMB substrate for five minutes and stopped by adding 25 μl of 2N sulfuric acid. The plate was read at OD450 nm Biotek plate reader (Table 6) and the data was analyzed with Prism 8.1 software to generate bar graph (FIG. 5).

[2] = molecular target: T2, human IL2Rβ Fc fusion protein (human, UniProt P14784 27-239); experiment: SPR (Biacore T200), receptor captured on Protein A chip, IL2 at 100 nM and 20 nM
T2 construct: also called ILR2β; CD122; not shown: Fc part
T2 sequence (looked up): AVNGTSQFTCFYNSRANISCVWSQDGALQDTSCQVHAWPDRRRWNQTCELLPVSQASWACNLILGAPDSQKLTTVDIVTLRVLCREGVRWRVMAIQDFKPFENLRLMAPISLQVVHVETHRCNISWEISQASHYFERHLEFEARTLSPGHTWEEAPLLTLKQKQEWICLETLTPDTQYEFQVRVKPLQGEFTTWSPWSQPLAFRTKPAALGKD
Procedure: (§1) The assay was run with Biacore T200 control software version 2.0. For each cycle, 1 μg/mL of human IL2Rβ or IL2Rα was captured for 60 seconds at flow rate of 10 μL/min on flow cell 2 in 1× HBSP buffer on Protein A sensor chip. 100 nM and 20 nM of HIS tag purified engineered IL2 mutant was injected onto both reference flow cell 1 and IL2Rβ or IL2Rα captured flow cell 2 for 150 seconds at flow rate of 30 μL/min followed by washing for 300 seconds. The flow cells were then regenerated with Glycine pH 2 for 60 seconds at a flow rate of 30 μL/mins. The kinetics data was analyzed with Biacore T200 evaluation software 3000. The specific binding response unit was derived from subtraction of binding to reference flow cell 1 from target flow cell 2.

[3] = molecular target: T1, human IL2Rα Fc fusion protein; experiment: as above
Procedure: as §1

[4] = molecular target: T2, human IL2Rβ Fc fusion protein; experiment: ELISA on coated receptor-Fc, anti-His detection; grade by OD450 (medium: 0.7-1.5)
Procedure: Mammalian cell-produced agonists were characterized for their binding activities to respective IL2Rβ and IL2Rα receptors by ELISA. Briefly, 384 well plate was immobilized with human IL2Rα and IL2Rβ Fc fusion proteins at a final concentration of 2 μg/mL in 1× PBS in total volume of 25 μL per well. The plate was incubated overnight at 4° C. and blocked with 80 μL of superblock per well for 1 hour. The purified clones were added to IL2Rα or IL-2Rβ wells in parallel in duplicates as a titration, with the highest concentration of 1 μM, followed by a 10 point 5× serial dilution of the clones. The binding activity was detected by adding 25 μL of anti-His HRP diluted at 1:5000 in 1× PBST. In between each step, the plate was washed three times with 1× PBST using a plate washer. The plate was then developed with 25 μL of TMB substrate for five minutes and stopped by adding 25 μL of 2N sulfuric acid. The plate was read at OD450 nm Biotek plate reader and the bar graph at 1 μM of IL2 was generated with Prism 8.1 software (FIG. 2).

B1: WT-IL2 (IL2 with wild-type IL2Rα and IL2Rβ binding domains and T3A and C125S substitutions) (ligand)
chain: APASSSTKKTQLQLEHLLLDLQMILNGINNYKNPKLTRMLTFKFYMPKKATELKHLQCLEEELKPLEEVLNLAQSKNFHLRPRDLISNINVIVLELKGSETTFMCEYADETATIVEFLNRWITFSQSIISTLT
notes: One molecule is kept for both; also called IL2 WT; human IL2 wt
- Average OD (450 nm) [1]: 3.85 OD450
- Kd [2]: 283 nM
- Kd [3]: 11.9 nM
- OD450 [4]: 0.7 to 1.5 od
